Assay results reported in the supplement of paper PMC4604168 (melanoma cell lines).
The list shows a part of the results. Most values come without repeats; read them as rough.

Columns and labels:
Experiment in all cases: cell count relative to DMSO control; melanoma cells; higher = more viable cells
Settings in all cases: library dose: standard library concentration; 72 h
[1] = system: SkMel28
[2] = system: SkMel2
[3] = system: SkMel30
[4] = system: SkMel5
[5] = system: UACC257
[6] = system: UACC62
[7] = system: WM115
[8] = system: WM1716
[9] = system: WM1745
[10] = system: WM3526
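Note: cells treated in 1,536-well plates, then fixed and DAPI-stained, with nuclei counted from automated high-throughput microscope images.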

| SMILES | cell count [1] [%] | cell count [2] [%] | cell count [3] [%] | cell count [4] [%] | cell count [5] [%] | cell count [6] [%] | cell count [7] [%] | cell count [8] [%] | cell count [9] [%] | cell count [10] [%] |
| --- | --- | --- | --- | --- | --- | --- | --- | --- | --- | --- |
| O=C(Nc1cc(C(F)(F)F)cc(C(F)(F)F)c1)c1cc(Cl)ccc1O + COc1ccc(C2=N[C@@H](c3ccc(Cl)cc3)[C@@H](c3ccc(Cl)cc3)N2C(=O)N2CCNC(=O)C2)c(OC(C)C)c1 [Nutlin-3] (first compound 0.08 µM, partner dose 0.5 µM) | 54.5 | 96.1 | 109 | 73.1 | 73.7 | 69.8 | 83.5 | 89 | 128 | 96.1 |
| O=C(O)c1ccc2c(c1)nc(Nc1cccc(Cl)c1)c1ccncc12 + C=CCNC1=C2C[C@@H](C)C[C@H](OC)[C@H](O)[C@@H](C)/C=C(\C)[C@H](OC(N)=O)[C@@H](OC)/C=C\C=C(/C)C(=O)NC(=CC1=O)C2=O [Tanespimycin] (first compound 2 µM, partner dose 0.01 µM) | 35.1 | 77.2 | 72.7 | 42.9 | 95 | 36.1 | 11 | 103 | 46.9 | 50.7 |
| O=C(O)[C@@H]1[O][Sb](=[O])([O][Sb]2(=[O])[O][C@H]([C@H](O)CO)[C@H](O)[C@H](C(=O)O)[O]2)[O][C@H]([C@H](O)CO)[C@@H]1O (stereo not given in full) [stibogluconate] + Cc1ccc(NC(=O)c2cccc(N(C)C)c2)cc1NC(=O)c1ccc(O)cc1 [ZM336372] (first compound 10 µM, partner dose 10 µM) | 88.1 | 88.2 | 112 | 100 | 104 | 97.6 | 86.3 | 103 | 54.4 | 94.4 |
| O=C(Nc1cc(C(F)(F)F)cc(C(F)(F)F)c1)c1cc(Cl)ccc1O + Nc1ncn([C@H]2C[C@H](O)[C@@H](CO)O2)c(=O)n1 [decitabine] (first compound 0.08 µM, partner dose 0.5 µM) | 121 | 86.2 | 103 | 80.2 | 119 | 76.6 | 81.5 | 89.9 | 77 | 93.8 |
| O=C(Nc1ccccc1)c1cc([N+](=O)[O-])ccc1Cl + COc1cc(N2CCC(N3CCN(C)CC3)CC2)ccc1Nc1ncc(Cl)c(Nc2ccccc2S(=O)(=O)C(C)C)n1 [NVP-TAE684] (first compound 10 µM, partner dose 0.4 µM) | 49.9 | 65.3 | 84.4 | 63.1 | 75.7 | 62.6 | 62.1 | 83.4 | 57.8 | 73.7 |
| Cn1nnc2c(C(N)=O)ncn2c1=O [temozolomide] + COc1ccc(COc2ccc(Cc3cnc(N)nc3N)cc2OC)cc1 [GW2580] (first compound 10 µM, partner dose 5 µM) | 29.6 | 111 | 44.2 | 69.9 | 81.8 | 76.3 | 95.1 | 56.4 | 90.3 | 84.1 |
| Cn1nnc2c(C(N)=O)ncn2c1=O [temozolomide] + CC1(C)NC(=O)N(c2ccc([N+](=O)[O-])c(C(F)(F)F)c2)C1=O [nilutamide] (first compound 10 µM, partner dose 5 µM) | 46.9 | 98.7 | 60.8 | 77.8 | 98.8 | 76.4 | 68.9 | 54 | 91.5 | 94.5 |
| Cc1cc(N2CCOCC2)cc2[nH]c(-c3c(NC[C@@H](O)c4cccc(Cl)c4)cc[nH]c3=O)nc12 + N#Cc1c(O)c2c(-c3ccc(-c4ccccc4O)cc3)csc2[nH]c1=O [A769662] (first compound 1 µM, partner dose 10 µM) | 102 | 104 | 73.2 | 75.4 | 98 | 86 | 108 | 105 | 75.7 | 82 |
| O=C(O)[C@@H]1[O][Sb](=[O])([O][Sb]2(=[O])[O][C@H]([C@H](O)CO)[C@H](O)[C@H](C(=O)O)[O]2)[O][C@H]([C@H](O)CO)[C@@H]1O (stereo not given in full) [stibogluconate] + Cc1nc(Nc2ncc(C(=O)Nc3c(C)cccc3Cl)s2)cc(N2CCN(CCO)CC2)n1 [dasatanib] (first compound 10 µM, partner dose 0.02 µM) | 55.8 | 71.6 | 86.8 | 68.3 | 47 | 59.5 | 55.7 | 72.5 | 30.2 | 73.1 |
| Cn1nnc2c(C(N)=O)ncn2c1=O [temozolomide] + Cc1ccc(NC(=O)c2cccc(N(C)C)c2)cc1NC(=O)c1ccc(O)cc1 [ZM336372] (first compound 10 µM, partner dose 10 µM) | 32.3 | 92.9 | 52.9 | 88.7 | 95.4 | 61.5 | 78.7 | 64.4 | 72.5 | 97.3 |
| O=C(Nc1cc(C(F)(F)F)cc(C(F)(F)F)c1)c1cc(Cl)ccc1O + O=C(CCCCCCC(=O)Nc1ccccc1)NO [vorinostat] (first compound 0.08 µM, partner dose 0.4 µM) | 44.3 | 68.3 | 78.7 | 51.8 | 60.5 | 83.5 | 66.2 | 80.8 | 66.6 | 76.3 |
| O=C(O)c1ccc2c(c1)nc(Nc1cccc(Cl)c1)c1ccncc12 + OCCn1cc(-c2cnc3nnn(Cc4ccc5ncccc5c4)c3n2)cn1 [PF04217903] (first compound 2 µM, partner dose 5 µM) | 81.1 | 73.9 | 77.5 | 84.8 | 101 | 61.5 | 109 | 78.3 | 79.9 | 58.4 |
| O=C(Nc1cc(C(F)(F)F)cc(C(F)(F)F)c1)c1cc(Cl)ccc1O + Cc1ccc(Nc2nccc(N(C)c3ccc4c(C)n(C)nc4c3)n2)cc1S(N)(=O)=O [Pazopanib] (first compound 0.08 µM, partner dose 2 µM) | 99.9 | 136 | 89.9 | 81.6 | 75.5 | 86.4 | 82.6 | 104 | 79.8 | 75 |
| O=C(Nc1cc(C(F)(F)F)cc(C(F)(F)F)c1)c1cc(Cl)ccc1O + Cc1nc(Nc2ncc(C(=O)Nc3c(C)cccc3Cl)s2)cc(N2CCN(CCO)CC2)n1 [dasatanib] (first compound 0.08 µM, partner dose 0.02 µM) | 74.5 | 98.6 | 88.4 | 65 | 57.2 | 84.8 | 69 | 67.6 | 42.1 | 85.7 |
| Cn1nnc2c(C(N)=O)ncn2c1=O [temozolomide] + CN(NC(=O)CC(=O)NN(C)C(=S)c1ccccc1)C(=S)c1ccccc1 [STA4783] (first compound 10 µM, partner dose 0.03 µM) | 28.4 | 69.6 | 59.7 | 62.2 | 110 | 46.2 | 23.9 | 56.6 | 13.7 | 105 |
| O=C(Nc1cc(C(F)(F)F)cc(C(F)(F)F)c1)c1cc(Cl)ccc1O + CCCCCCCCc1ccc(CCC(N)(CO)CO)cc1 [fingolimod] (first compound 0.08 µM, partner dose 10 µM) | 0.854 | 0.216 | 11.3 | 81.2 | 91 | 31 | 17.4 | 65.2 | 3.68 | 61.4 |
| Cn1nnc2c(C(N)=O)ncn2c1=O [temozolomide] + OCCn1cc(-c2cnc3nnn(Cc4ccc5ncccc5c4)c3n2)cn1 [PF04217903] (first compound 10 µM, partner dose 5 µM) | 50.4 | 105 | 68 | 110 | 122 | 77.7 | 123 | 80.7 | 79 | 108 |
| O=C(Nc1cc(C(F)(F)F)cc(C(F)(F)F)c1)c1cc(Cl)ccc1O + CO[C@@H]1[C@H](N(C)C(=O)c2ccccc2)C[C@H]2O[C@]1(C)n1c3ccccc3c3c4c(c5c6ccccc6n2c5c31)C(=O)NC4 [Midostaurin] (first compound 0.08 µM, partner dose 0.4 µM) | 40.3 | 38.8 | 67.8 | 47.5 | 66.1 | 63.6 | 46.1 | 51.2 | 26.3 | 65.8 |
| O=C(Nc1ccccc1)c1cc([N+](=O)[O-])ccc1Cl + Cc1cc([N+](=O)[O-])ccc1NS(=O)(=O)c1cc(Cl)ccc1Cl [FH535] (first compound 10 µM, partner dose 5 µM) | 54.2 | 86.2 | 77.7 | 65.7 | 69.2 | 103 | 77.5 | 82.1 | 69 | 77.2 |
| Cc1cc(N2CCOCC2)cc2[nH]c(-c3c(NC[C@@H](O)c4cccc(Cl)c4)cc[nH]c3=O)nc12 + NCC(=O)Nc1ccc(-n2nc(C(F)(F)F)cc2-c2ccc3c(ccc4ccccc43)c2)cc1 [OSU03012] (first compound 1 µM, partner dose 5 µM) | 22 | 37 | 36.9 | 52.3 | 87.8 | 52 | 100 | 87.4 | 50.8 | 50.6 |
| O=C(Nc1cc(C(F)(F)F)cc(C(F)(F)F)c1)c1cc(Cl)ccc1O + NC(=O)c1ccc(N(C(N)=O)c2c(F)cccc2F)nc1-c1ccc(F)cc1F [VX702] (first compound 0.08 µM, partner dose 2 µM) | 88.1 | 119 | 106 | 88.8 | 107 | 81.2 | 103 | 128 | 119 | 111 |
| O=C(O)[C@@H]1[O][Sb](=[O])([O][Sb]2(=[O])[O][C@H]([C@H](O)CO)[C@H](O)[C@H](C(=O)O)[O]2)[O][C@H]([C@H](O)CO)[C@@H]1O (stereo not given in full) [stibogluconate] + CO[C@H]1C[C@@H]2CC[C@@H](C)[C@@](O)(O2)C(=O)C(=O)N2CCCC[C@H]2C(=O)O[C@H]([C@H](C)C[C@@H]2CC[C@@H](OCCO)[C@H](OC)C2)CC(=O)[C@H](C)/C=C(\C)[C@@H](O)[C@@H](OC)C(=O)[C@H](C)C[C@H](C)/C=C/C=C/C=C/1C [everolimus] (first compound 10 µM, partner dose 0.1 µM) | 42.2 | 65.3 | 59.7 | 65.8 | 97.4 | 74.7 | 68.6 | 89 | 95.5 | 66.4 |
